Measured values from PubChem BioAssay AID463173 (ICCB-Longwood Screening Facility, Harvard Medical School, 2010).
Out of some 52,000 compounds screened, about 4,300 (8.3%) were called active. No stated cut-off is given here; in the data, active means survival mostly below about 52% (no sharp cut-off); inactive means mostly above about 56%. Some of the results follow.

System: DeltatarO mutant
Assay: S. aureus survival, RN4220 and DeltatarO strains – OD600, teichoic acid synthesis inhibitors, primary screen (AID 463173)
Conditions: S. aureus RN4220 wild type/DeltatarO growth, OD600, 18 h, active compounds read low, screened at 18.75 µg/mL (by protocol)

Row | Compound | survival
1 | CCCOc1cccc(C(=O)Nc2cc(-c3ccccc3)no2)c1 | inactive: 65%
2 | CCc1ccc(NC(=O)CN(c2cc(C)cc(C)c2)S(=O)(=O)c2c(C)[nH]c(=O)[nH]c2=O)cc1 | inactive: 57%
3 | CC(=O)c1cccc(NC(=O)CSc2nc3ccccc3nc2Cc2ccc(F)cc2)c1 | inactive: 77%
4 | CC(=O)Nc1ccccc1-c1nc2ccccc2n(CC(=O)Nc2cccc(C(F)(F)F)c2)c1=O | active: 45%
5 | Cc1ccc(CO)cc1Nc1ncnc2onc(-c3ccc(F)cc3)c12 | active: 46%
6 | CCOc1cccc2cc(S(=O)(=O)c3ccccc3F)c(=O)oc12 | inactive: 89%
7 | CS(=O)(=O)N1CCNCC1 | inactive: 75%
8 | O=[N+]([O-])c1cc(-c2nc(-c3ccccc3)no2)ccc1NC1CCCCC1 | inactive: 75%
9 | N#C/C(=C\Nc1ccc2c(c1)OCCO2)c1nc2ccccc2[nH]1 | inactive: 57%
10 | O=C(Cc1csc2nc(-c3ccc(F)cc3)cn12)NCc1ccccc1 | inactive: 94%
11 | C=Cc1ccc(Cn2c(C)c(CNCc3ccccc3C)c(C(=O)O)c2C)cc1 | inactive: 120%
12 | COc1ccc(C2c3cc(OC)c(OC)cc3CC(=O)N2c2ccc(C)c(F)c2)cc1 (stereo not given) | inactive: 79%
13 | CCC1Oc2ccc(Cl)cc2N(CC(=O)NCCc2ccc(Cl)cc2)C1=O (stereo not given) | inactive: 94%
14 | CCCN1Cc2cccc(C(=O)Nc3cccc(C(=O)OCC)c3)c2C1=O | inactive: 88%
15 | COc1ccc(/C=C/C(=O)Nc2ccc3nc(N4CCC(C)CC4)cc(C)c3c2)cc1 | active: 51%
16 | COCCNc1nc(NCc2cccc(Cl)c2)c2cnn(C)c2n1 | inactive: 77%
17 | COc1ccc2c(c1)cc1c(=O)n(CC(=O)NC3CC3)nc(C)n12 | inactive: 80%
18 | CCN(c1ccccc1)S(=O)(=O)c1c(-c2ccc(C)cc2)csc1C(=O)OC | inactive: 108%
19 | COc1ccccc1C(=O)Nc1ccc2oc(-c3cccc4c(Br)cccc34)nc2c1 | inactive: 46%
20 | CCCCS(=O)Cc1ccccc1 (stereo not given) | inactive: 95%
21 | O=C(Nc1cccc(F)c1)c1ccc2c(c1)N(Cc1ccccc1)C(=O)c1ccccc1S2(=O)=O | inactive: 80%
22 | O=C(COc1ccc(Cl)cc1)OCc1cc(=O)n2nc(C3CC3)sc2n1 | inactive: 83%
23 | COC(=O)c1ccccc1NC(=O)C1CCN(C(=O)N2CC(C)Oc3ccccc32)CC1 (stereo not given) | inactive: 61%

Row | Compound | survival
24 | COc1ccc(C(=O)NCC(c2ccc(N(C)C)cc2)N2CCc3ccccc32)cc1OC (stereo not given) | inactive: 64%
25 | Cc1ccc(OCC(=O)Nc2ccccc2OCc2cc(=O)n3ccccc3n2)cc1C | inactive: 120%
26 | COc1ccc(-c2nc3ccccc3s2)cc1NC(=O)c1ccc(F)cc1 | inactive: 137%
27 | O=C(Nc1nnc(S(=O)(=O)N2CCCCC2)s1)c1ccccc1Br | inactive: 61%
28 | Cc1ccc(-c2nnc(Nc3ccc(C(=O)N(C)C)cc3)c3ccccc23)cc1S(=O)(=O)N(C)C | inactive: 79%
29 | O=C1OC(c2ccccc2)=C/C1=C/N1CCOCC1 | inactive: 104%
30 | CCN(C(=O)CN1C(=O)COc2ccc(S(=O)(=O)N3CCOCC3)cc21)c1ccc(OC)cc1 | inactive: 88%
31 | COc1ccc(F)cc1S(=O)(=O)Nc1cccc(-c2ccc(N3CCC(C)CC3)nn2)c1 | inactive: 109%
32 | O=C(Cn1ncn2c(cc3ccccc32)c1=O)NCc1ccc(F)cc1 | inactive: 104%
33 | Cc1ccc(-c2cc(-c3ccccc3)c(C#N)c(SCC(O)CS(=O)(=O)Cc3ccccc3)n2)cc1 (stereo not given) | inactive: 60%
34 | COc1ccc(Nc2ncnc3c2nc2n3CCCCC2)cc1 | inactive: 89%
35 | N#Cc1c(/N=C/N2CCCCC2)sc2c1CCCC2 | inactive: 80%
36 | CCCOc1ccc(CNC(=O)c2[nH]c3cc(OC)ccc3c2Sc2ccccc2)cc1 | inactive: 83%
37 | CCN1CCN(C(=S)NC)CC1 | inactive: 79%
38 | CC(C)c1ccc(-c2noc(C3CCCN(S(=O)(=O)c4ccccc4)C3)n2)cc1 (stereo not given) | inactive: 80%
39 | COc1cccc(-c2nnn(CCc3nn[nH]n3)n2)c1 | inactive: 84%
40 | COC(=O)c1ccc(NC(=O)CSC2=NCCS2)cc1 | inactive: 89%
41 | COc1ccc(C)cc1NC(=O)Nc1cccc(-c2noc(C)n2)c1 | inactive: 124%
42 | CCc1ccc(NC(=O)Cn2c(=O)n(CCC(=O)NCCc3ccc(Cl)cc3)c(=O)c3ccccc32)cc1 | inactive: 73%
43 | O=C(NC1CC1)C1C2C=CC3(O2)C1C(=O)N(C1CC1)C3C(=O)NC1CCCCC1 (stereo not given) | inactive: 88%
44 | Cc1noc(/C=C/c2ccccc2F)c1S(=O)(=O)N1CCC(C(=O)N2CCOc3ccccc32)CC1 | inactive: 91%
45 | COc1ccc(C(=O)Nc2nc(-c3nnn(-c4ccc(C(C)C)cc4)c3C)ns2)cc1 | inactive: 108%
46 | COc1ccccc1CCNC(=O)C(C)Sc1nc(-c2ccccc2)cc(C(F)(F)F)n1 (stereo not given) | inactive: 65%

Row | Compound | survival
47 | CC(=NCCCn1ccnc1)c1c(C(F)(F)F)[nH]n(-c2nc3ccccc3s2)c1=O | inactive: 120%
48 | CCOC(=O)C(Cc1c[nH]c2ccccc12)NC(=O)COc1ccc(CC)cc1 (stereo not given) | active: 33%
49 | Cc1cc(NC(=O)CN2CCC(C)CC2)nc2c1c(=O)oc1ccccc12 | inactive: 102%
50 | CCOC(=O)c1c(C)[nH]c(C)c1S(=O)(=O)N1CCC(C(=O)NCc2ccccc2Cl)CC1 | inactive: 109%
51 | COc1ccc(C)cc1N(C)C(=O)CCc1nc(-c2ccccc2F)no1 | inactive: 45%
52 | CCCCNc1oc(-c2ccc(COc3ccc(OC)cc3)o2)nc1C#N | inactive: 68%
53 | Cc1ccc(Cl)cc1NC(=O)CN1C(=O)CCc2ccccc21 | inactive: 99%
54 | CCOC(=O)c1cc2oc(C)cc2n1CCCN1C(=O)c2ccccc2C1=O | active: 0%
55 | CC(C)NC(=O)CN1C(=O)C(C)(C)Oc2ccc(C(=O)NC(C)C)cc21 | inactive: 109%
56 | COC(=O)c1ccccc1NC(=O)CCCn1c(=O)c2cccn2c2cccnc21 | inactive: 92%
57 | CCc1nc(NCCCO)c2nnn(Cc3ccccc3F)c2n1 | inactive: 77%
58 | CN(C)c1ccc(Nc2ncnc3sc4c(c23)CCCC4)cc1 | inactive: 106%
59 | CC(=O)Nc1ccc(N(C(=O)Cn2nnc3ccccc32)C(C(=O)NCc2ccccc2)c2ccc(C)cc2)cc1 (stereo not given) | active: 38%
60 | COc1ccc(CCNC(=O)c2c(C)oc3ncn(C)c(=O)c23)c(OC)c1 | inactive: 84%
61 | O=C1C(c2ccc(F)cc2)N(CCc2ccccc2)C(=O)CN1C1CCCCCC1 (stereo not given) | inactive: 70%
62 | Cc1ccc2[nH]c(=O)c3cc(C(=O)NCCCN4CCC(C)CC4)sc3c2c1 | inactive: 85%
63 | CCN(C(=O)CSc1nc2ccccc2n1Cc1ccc(F)cc1Cl)c1ccccc1 | inactive: 77%
64 | CCOc1cccc(C(=O)Nc2nc3c(s2)CC(C(C)(C)C)CC3)c1 (stereo not given) | inactive: 77%
65 | COc1ccc(N(CC(=O)N2CCN(c3ccc(F)cc3)CC2)S(=O)(=O)c2c(C)noc2C)cc1 | inactive: 67%
66 | CC(C)(C)c1cc(C(F)(F)F)nc(SCCCNC(=O)c2ccco2)n1 | inactive: 76%
67 | CCCCN1C(=O)C(O)(CC(=O)c2ccc(C)cc2C)c2cc(Br)ccc21 (stereo not given) | active: 11%
68 | O=C(NCc1ccco1)c1ccc2c(c1)N(Cc1ccc(F)cc1)C(=O)c1ccccc1S2(=O)=O | inactive: 105%
69 | CC(C)COc1ccc(C(=O)Nc2cc(-c3ccccc3)no2)cc1 | inactive: 85%

Row | Compound | survival
70 | O=C(Cn1cnc2ccccc2c1=O)NCCC(=O)Nc1ccc(F)cc1 | inactive: 85%
71 | CCc1cccc2c(C#N)cn(CCOc3ccccc3OC)c12 | inactive: 80%
72 | CCCCN(CC)CCCNC(=O)Cn1ncc2c([nH]c3ccc(C)cc32)c1=O | inactive: 89%
73 | Cc1c(C(=O)N2CCOCC2)oc2c1-c1nn(CC(=O)NCc3cccc(Cl)c3)cc1CC2 | inactive: 70%
74 | CCCCS(=O)(=O)c1oc(-c2ccc(F)cc2)nc1S(=O)(=O)c1ccc(C)cc1 | active: 30%
75 | Cn1c(=O)oc2cc(S(=O)(=O)N3CCC(C(=O)N4CCN(c5ccccc5F)CC4)CC3)ccc21 | inactive: 80%
76 | COc1cc(Cl)c(C)cc1NC(=O)CC(c1ccc(F)cc1)N1Cc2ccccc2C1=O (stereo not given) | active: 0%
77 | CC(C)(C)OC(=O)N1CCC(c2c(C(=O)NCCc3ccccc3)cnn2-c2ccc(F)cc2F)CC1 | inactive: 79%
78 | COc1ccc(-c2c(C)c3ccc(O)c(CN4CCN(CCO)CC4)c3oc2=O)cc1OC | inactive: 68%
79 | O=C(NCc1cccc(F)c1)c1ccc(NC(=O)c2nsc3ccccc23)cc1 | active: -2%
80 | COc1cccc(CNC(=O)c2cc(Sc3cccc(Cl)c3)nc3ccccc23)c1 | inactive: 74%
81 | Cc1ccc(/C=C/C(=O)Nc2ccccc2C(N)=O)o1 | inactive: 64%
82 | COc1cc(OC)cc(-c2nc3n(n2)C(c2ccccc2)C(C(N)=O)=C(C)N3)c1 (stereo not given) | inactive: 78%
83 | COc1ccccc1NC(=O)COc1ccc(-c2nn(C)c(=O)c3ccccc23)cc1 | active: 37%
84 | CCOc1ccc(CNC(=O)Cn2nc(C)c3c(C)n(-c4ccc(C)cc4)nc3c2=O)cc1 | inactive: 93%
85 | CC(C)C(=O)Nc1nc2c(s1)CC(C(C)(C)C)CC2 (stereo not given) | inactive: 92%
86 | CC1=C(C)CC(C(=O)Nc2ccc(NC(=O)NC3CCCCC3)cc2)C(C(=O)O)C1 (stereo not given) | inactive: 81%
87 | O=C(CCS(=O)(=O)c1ccccc1)N(Cc1cccnc1)c1nc2ccc(F)cc2s1 | inactive: 102%
88 | CC(=O)c1ccc(-n2c(CCC(=O)O)ccc2-c2cccs2)cc1 | inactive: 65%
89 | COc1ccc(-c2cnc(C)o2)cc1S(=O)(=O)Nc1ccc(OC(F)(F)F)cc1 | inactive: 74%
90 | Cc1ccc(C)c(CSc2nnc(C)n3c2cc2sccc23)c1 | inactive: 80%
